Data as given in PubChem BioAssay (NCATS).
This is one part of the list. Further columns of the screen follow, without active or inactive calls. Most of these compounds were active or inconclusive in the main read-out, so they are no random draw. Words in brackets tell the shape of the fitted curve; partial curves, single points and poor fits give uncertain potencies.

Test: Cell-based coincidence reporter assay to measure PMP22 gene transcription in S16 Pmp22-F2sN cells - Confirmatory screen (AID 1508646)
Conditions: S16 Schwann cells Pmp22-F2sN, dual luciferase, 24 h
Summary of the method: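 S16 rat Schwann cells carrying FLuc-2A-NLuc reporter in Pmp22 3' UTR (500-1,000 cells/well) treated with pinned compounds for 24 h at 37C. Dual-luciferase reads: FLuc luminescence first, then NLuc after Stop&Glo.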

[1] = measured here: FLuc reporter channel
[2] = measured here: NLuc reporter channel
Tags tell the direction and shape of the fitted curve.

Compound | AC50 [1] | AC50 [2]
Cc1ccc(/C=C/c2onc(C)c2S(=O)(=O)N2CCC(C(=O)NCC(C)c3ccccc3)CC2)cc1 (centres undefined) | 24.3 µM [falling, single point] | 24.3 µM [falling, partial curve, poor fit]
COc1ccc(Cl)cc1NC(=O)CCS(=O)(=O)c1nc(-c2cccs2)cc(C(F)(F)F)n1 | 6.85 µM [falling, full curve] | 10.9 µM [falling, partial curve]
CCCCOc1ccc(CN2C(=O)C(=O)c3cc(Br)cc(C)c32)cc1OC | 12.2 µM [falling, partial curve] | 9.68 µM [falling, full curve]
COc1cccc(N2CCN(C(=O)c3ccc(CS(=O)c4cccc(Cl)c4)o3)CC2)c1 (centres undefined) | 1.93 µM [falling, full curve, poor fit] | 6.85 µM [falling, full curve, poor fit]
COCCCNC(=O)c1ccc2c(c1)N=C(C)c1c(C)ccc(C)c1S2 | 0.306 µM [falling, full curve] | 0.306 µM [falling, full curve]
CCCS(=O)(=O)c1ncc(Cl)c(C(=O)Nc2scc(-c3ccccc3)c2C(=O)OCC)n1 | 8.62 µM [falling, full curve] | 12.2 µM [falling, full curve]
COc1ccccc1Nc1nn2c(=O)c3ccc(C(=O)Nc4ccc(F)cc4)cc3nc2s1 | 5.44 µM [falling, full curve] | 6.11 µM [falling, full curve]
